From PubChem BioAssay AID686971 (National Center for Advancing Translational Sciences (NCATS), 2013)
The campaign covered roughly 360,000 compounds. About 7,500 (2.1%) were called active. The shares of active, inactive and inconclusive entries below differ from those in the screen. The call rests on the fitted dose curve; in most records, active means well fitted cell-killing curve with a large enough effect; inconclusive means small, poorly fitted or top-dose-only effect, or effect the other way, or another doubt; inactive means no such curve, though single readings can be large or run the other way. No potency is given beside an inconclusive call; the fits are too rough.

Assay: qHTS for induction of synthetic lethality in tumor cells producing 2HG: qHTS for the HT-1080-IDH1KD cell line;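 on activity, negative = toxicity: 0% = DMSO wells and -100% = cell-free medium wells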
Settings: HT-1080 IDH1 knockdown viability, ATP luminescence, 48 h; activity, negative = toxicity: at 46.1 µM (top of the series) unless noted
Procedure, shortened: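 IDH1KD HT-1080 cells, 750/well, RPMI + 5% FBS; compound pinned after 2 h settling; 48 h, 37 °C; CellTiter-Glo luminescence; % activity normalised to DMSO and no-cell wells; curves fitted, classed by r2 and efficacy.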
Potency means the concentration at half of the fitted maximal effect; tags describe the fitted curve by direction and shape.

SMILES | Potency | activity, negative = toxicity
COc1ccc(NC(=O)c2c(Cl)n(C)c3ccccc23)cc1 | inconclusive [cytotoxic, partial curve, poor fit] | –
COC(=O)[C@]12CCCCC=C1N(Cc1ccc(Cl)cc1Cl)C(=O)[C@H](CC(=O)N1CCCCC1)C2 | inconclusive [cytotoxic, single point] | –
COc1cc(OC)cc(-c2sc3ccc(OC)cc3c2C#CCO)c1 | inconclusive [cytotoxic, single point] | –
O=C(Nc1cccnc1Cl)c1ccc(Cl)cc1 | – | inactive: 18%
COCCCNc1ncnc2c1cnn2-c1ccc(C)cc1C | – | inactive: -10.1%
CC1(C(=O)Nc2ccc3c(c2)OCCO3)CCN1C(=O)Cc1ccc(-c2ccccc2)cc1 (stereo not given) | inconclusive [cytotoxic, single point] | –
COc1cccc(-n2c(C)nc3c(cnn3-c3ccc(C)cc3)c2=O)c1 | inconclusive [cytotoxic, single point] | –
CCN(CC)CCNC(=O)c1cc2cc(Br)ccc2s1 | inconclusive [cytotoxic, partial curve] | –
O=C(N/N=C/C(Br)=C/c1ccccc1)c1cc(-c2ccco2)[nH]n1 | inconclusive [cytotoxic, partial curve] | –
CC(C)(C)[C@H]1C=C(C(=O)N2CCOCC2)O[C@@H](OCCCCO)C1 | – | inactive: -2.26%
CC(=O)CCS(=O)(=O)c1ccc(Oc2ccc(S(=O)(=O)CCC(C)=O)cc2)cc1 | inconclusive [cytotoxic, single point] | –
O=C(c1cccc(C(=O)N2CCN(c3ccc(F)cc3)CC2)c1)N1CCN(c2ccc(F)cc2)CC1 | inconclusive [cytotoxic, partial curve, poor fit] | –
O=C(/C=C/c1cccc(Cl)c1)c1nc2ccccc2[nH]1 | inconclusive [cytotoxic, single point] | –
Cc1sc2nc(CN3CCCC3)nc(N3CCN(C(=O)c4ccco4)CC3)c2c1C | – | inactive: -0.945%
OCCN1CCN(CC#CCn2c3ccccc3c3ccccc32)CC1 | inconclusive [cytotoxic, single point] | –
COc1ccc(C/C(C)=N/NC(=S)Nc2ccc(C(C)C)cc2)cc1 | – | inactive: 4.1%
Brc1ccc2[nH]c3c(N4CCc5ccccc5C4)ncnc3c2c1 | active: 23.1 µM | –
O=C(CN(C(=O)CNC(=O)c1cccs1)c1ccccc1)NC1CCCCC1 | – | inactive: -0.754%
Cc1ccc(NC(=O)CSCc2nc3c(nnn3Cc3ccc(F)cc3)c(=O)[nH]2)c(C)c1 | inconclusive [cytotoxic, partial curve] | –
CC1CC(C)CN(C(C(=O)NC2CCCCC2)c2cc3ccccc3o2)C1 (stereo not given) | inconclusive [cytotoxic, single point] | –
COC(=O)c1cc(=O)n(Cc2ccc3c(c2)OCO3)c(=Nc2ccc(F)c(Cl)c2)s1 | – | inactive: -1.15%
CC(=O)C(C(c1ccccc1)c1c[nH]c2ccccc12)[N+](=O)[O-] (stereo not given) | active: 23.1 µM | –
O=C(OCc1ccccc1)N1CCCCC1c1c(Cl)cccc1Br (stereo not given) | inconclusive [cytotoxic, single point] | –

SMILES | Potency | activity, negative = toxicity
CC(C)(C)n1nnnc1C(C1CC1)N1CCN(C/C=C/c2ccccc2)CC1 (stereo not given) | – | inactive: 5.94%
CCOC(=O)c1[nH]c2ccc(OC)cc2c1NC(=O)/C=C/c1ccc2c(c1)OCO2 | inconclusive [cytotoxic, single point] | –
Cc1ccc(C)n1-c1ccc(NC(=O)c2ccccc2)cc1 | – | inactive: -20.3%
COc1ccc2cc([C@H](C)C(=O)N(C)Cc3ccccc3N3CCCC3)ccc2c1 | inconclusive [cytotoxic, partial curve] | –
CCOc1ccccc1OCCCCOc1ccccc1F | – | inactive: 17.9%
COc1ccccc1C(=O)Nc1nc2ccccc2[nH]1 | active: 1.3 µM | –
COc1cccc(NC(=O)c2cc(-c3cccnc3)nc3c(Cl)cccc23)c1 | inconclusive [cytotoxic, single point] | –
Cc1onc(-c2c(Cl)cccc2Cl)c1C(=O)N1CCN(c2ccccc2)CC1 | inconclusive [cytotoxic, single point] | –
COc1ccc2nc(NC(=O)CSc3nnc(C)s3)sc2c1 | – | inconclusive: 2.43% [cytotoxic]
CC(C)C[C@H]1CN(CCCC[C@@H]2CNC(=O)C(=O)N2CCc2ccccc2)C(=O)C(=O)N1CCc1ccc(O)cc1 | inconclusive [cytotoxic, single point] | –
CC(C)(O)c1cc2ccc(C#CCCN3C(=O)c4ccccc4C3=O)cc2c(=O)o1 | inconclusive [cytotoxic, single point] | –
CCCS(=O)(=O)NC(=O)C1(C)CCN(C(=O)c2snnc2C)C1 (stereo not given) | – | inactive: 8.97%
Cc1ccc(CNC(=O)[C@H](C)NC(=O)C2CCN(C(=O)[C@@H](N)CC(C)C)CC2)cc1 | – | inactive: -1.65%
O=C1C(Cl)=C(N2CCN(c3ccccc3[N+](=O)[O-])CC2)C(=O)c2ccccc21 | inconclusive [cytotoxic, single point] | –
CCCC(O)(c1ccc(OC)cc1)C(CN1CCOCC1)c1ccc(Cl)cc1 (stereo not given) | inconclusive [cytotoxic, single point] | –
CC[C@]12CCCN3CCc4c(n(c5ccccc45)C(=O)C1)C32 (stereo not given in full) | inconclusive [cytotoxic, single point] | –
Cc1cc(NC(=O)CSc2nc(-c3ccc(Cl)cc3)cs2)no1 | inconclusive [cytotoxic, single point] | –
Cc1ccc(C)c(S(=O)(=O)N2CCN(C(=O)Cn3c(=O)cnc4ccccc43)CC2)c1 | – | inactive: 10.2%
COCc1cccc(-c2csc(C(C)(O)c3ccc(OC)cc3)n2)c1 (stereo not given) | – | inactive: -3.19%
COc1ccc(/C=C/C(=O)NCc2cn(C)nc2C)cc1COc1ccc(Cl)cc1Br | inconclusive [cytotoxic, single point] | –
CCn1cc(CN2CCCC(C(=O)c3ccc(-c4ccccc4)c(F)c3)C2)cn1 (stereo not given) | active: 20.6 µM | –
COC(=O)c1cc(=O)n(Cc2cccs2)c(=Nc2ccc(F)cc2)s1 | inconclusive [cytotoxic, single point] | –
